# From patent US20230133118A1, “COMPOSITIONS AND METHODS FOR TREATING CANCER” (Adagene AG, priority 2020, published 2023)
# System: advanced or metastatic solid tumors and/or non-Hodgkin lymphoma
# Experiment: Phase 1 clinical studies of ADG106 (US NCT03707093, China NCT03802955): anti-tumor efficacy
# Assay type: in vivo, human
# Design: key to Response: CR: disappearance of all target lesions; PR: at least a 30% decrease in the sum of the longest diameters (SLD) of target lesions; SD: neither sufficient shrinkage of target lesions to qualify for PR, nor sufficient increase to qualify for PD; PD: at least a 20% increase in the SLD of target lesions
# [1] = China update, 48 patients with post-tumor scans
# [2] = US update, 23 patients with post-tumor scans
# [3] = dose escalation 1.5 mg/kg CN n=5
# [4] = dose escalation 3.0 mg/kg US n=3, CN n=3
substance,measurement,setting,value
"ADG106: fully human agonistic anti-CD137 monoclonal IgG4 antibody; heavy chain SEQ ID NO: 10, light chain SEQ ID NO: 11",Disease control rate,China update,58%
same,patients with tumor shrinkage,China update,10 patients
same,best response PD,[1],20 patients
same,best response PR,[1],1 patient
same,best response SD,[1],27 patients
same,CR or PR,US update,there was no CR or PR
same,patients with tumor shrinkage,US update,3 patients
same,Disease control rate,[2],52%
same,best response PD,[2],11 patient
same,best response SD,[2],12 patient
same,tumor size decreased,"US update, patient with endometrial carcinoma",5%
same,tumor size decreased,"US update, patient with esophageal carcinoma",18%
same,tumor size decreased,"US update, patient with follicular lymphoma",2%
same,"Stable Disease, patients",accelerated titration 0.03 mg/kg US n=1,1
same,"Progressive disease, patients","accelerated titration 0.1 mg/kg US n=1, CN n=1",2
same,"Stable Disease, patients",accelerated titration 0.3 mg/kg US n=1,1
same,patients with tumor size reduction,among the 17 patients with stable disease,7 patients
same,pharmacologically active dose,"clinical responses and exploratory PD analysis, monotherapy",≥ 1 mg/kg
same,"Stable Disease, patients",dose escalation 0.5 mg/kg CN n=3,1
same,"Stable Disease, patients",dose escalation 1.0 mg/kg US n=4,1
same,"Progressive disease, patients",[3],3
same,"Stable Disease, patients",[3],2
same,"Progressive disease, patients",[4],2
same,"Stable Disease, patients",[4],4
same,"Stable Disease, patients","dose escalation 5.0 mg/kg US n=3, CN n=3",4
same,"Progressive disease, patients","dose escalation 10.0 mg/kg US n=3, CN n=2",2
same,"Stable Disease, patients","dose expansion 3.0 mg/kg US n=3, CN n=3",3
same,Response,"individual patient, 0.1 mg/kg, NSCLC",PD (at least a 20% increase in the SLD of target lesions)
same,Response,"individual patient, 0.5 mg/kg, NSCLC",SD
same,Response,"individual patient, 1.5 mg/kg, NSCLC",PD (at least a 20% increase in the SLD of target lesions)
same,Response,"individual patient, 3 mg/kg, AITL",SD
same,Response,"individual patient, 3 mg/kg, Melanoma",SD
same,Response,"individual patient, 3 mg/kg, NSCLC",SD
same,Response,"individual patient, 5 mg/kg, Mucinous adenocarcinoma",SD
same,Response,"individual patient, 10 mg/kg, NSCLC",SD
same,Response,"individual patients, 0.5 mg/kg, NPC",PD (at least a 20% increase in the SLD of target lesions)
same,Response,"individual patients, 3 mg/kg, ACC",SD
same,Response,"individual patients, 5 mg/kg, Lymphoma",SD
same,Response,"individual patients, 5 mg/kg, NPC",PD (at least a 20% increase in the SLD of target lesions); also recorded: PR (at least a 30% decrease in the sum of the longest diameters (SLD) of target lesions)
same,tumor shrinkage,"lymphoma patient with 20.54% CD137L expression, two cycles",32%
same,tumor shrinkage,"lymphoma patient with 23.08% CD137L expression, two cycles",36%
same,"Progressive disease, patients",overall N=40,13
same,"Progressive disease, percent of patients",overall N=40,(32.5) %
same,"Stable Disease, patients",overall N=40,17
same,tumor size reduction,"patient R017, after one cycle",> 30%
same,tumor shrinkage,"patient R017, angioimmunoblastic T cell lymphoma, after four cycles",33%
same,overall tumor shrinkage of the targeted lesions,"stage III angioimmunoblastic T cell lymphoma patient, after one dose",33%

# Entries after “also recorded” stand apart in the source; their conditions may differ.
